Results published in PubChem BioAssay AID504333 (National Center for Advancing Translational Sciences (NCATS), 2011).
In all, about 360,000 compounds went through this assay and about 16,000 (4.4%) were called active. The shares of active, inactive and inconclusive entries below differ from those in the screen. Calls come from the whole dose curve; as a rule, active = well fitted inhibition curve with a large enough effect; inconclusive = small, poorly fitted or top-dose-only effect; inactive = no such curve, though single readings can be large or run the other way. Potencies of inconclusive entries are doubtful fits and often do not repeat.
% is set by controls: 0 for no effect and ±100 for the full control effect; potency is the fitted concentration of half-maximal effect; tags give direction and shape of the fitted curve.
Note: nearly all actives have a fitted effect of over 60% in size.

Each molecule was assayed against Bromodomain adjacent to zinc finger domain protein 2B (Homo sapiens) (UniProt Q9UIF8) (assay: qHTS Assay for Inhibitors of BAZ2B). Details: AlphaScreen BAZ2B-H3K14Ac peptide displacement; activity change, negative = inhibition: at 114 µM (top of the series) unless noted.
Chain of UniProt Q9UIF8 (Q9UIF8 whole entry, looked up, the tested form may be a part): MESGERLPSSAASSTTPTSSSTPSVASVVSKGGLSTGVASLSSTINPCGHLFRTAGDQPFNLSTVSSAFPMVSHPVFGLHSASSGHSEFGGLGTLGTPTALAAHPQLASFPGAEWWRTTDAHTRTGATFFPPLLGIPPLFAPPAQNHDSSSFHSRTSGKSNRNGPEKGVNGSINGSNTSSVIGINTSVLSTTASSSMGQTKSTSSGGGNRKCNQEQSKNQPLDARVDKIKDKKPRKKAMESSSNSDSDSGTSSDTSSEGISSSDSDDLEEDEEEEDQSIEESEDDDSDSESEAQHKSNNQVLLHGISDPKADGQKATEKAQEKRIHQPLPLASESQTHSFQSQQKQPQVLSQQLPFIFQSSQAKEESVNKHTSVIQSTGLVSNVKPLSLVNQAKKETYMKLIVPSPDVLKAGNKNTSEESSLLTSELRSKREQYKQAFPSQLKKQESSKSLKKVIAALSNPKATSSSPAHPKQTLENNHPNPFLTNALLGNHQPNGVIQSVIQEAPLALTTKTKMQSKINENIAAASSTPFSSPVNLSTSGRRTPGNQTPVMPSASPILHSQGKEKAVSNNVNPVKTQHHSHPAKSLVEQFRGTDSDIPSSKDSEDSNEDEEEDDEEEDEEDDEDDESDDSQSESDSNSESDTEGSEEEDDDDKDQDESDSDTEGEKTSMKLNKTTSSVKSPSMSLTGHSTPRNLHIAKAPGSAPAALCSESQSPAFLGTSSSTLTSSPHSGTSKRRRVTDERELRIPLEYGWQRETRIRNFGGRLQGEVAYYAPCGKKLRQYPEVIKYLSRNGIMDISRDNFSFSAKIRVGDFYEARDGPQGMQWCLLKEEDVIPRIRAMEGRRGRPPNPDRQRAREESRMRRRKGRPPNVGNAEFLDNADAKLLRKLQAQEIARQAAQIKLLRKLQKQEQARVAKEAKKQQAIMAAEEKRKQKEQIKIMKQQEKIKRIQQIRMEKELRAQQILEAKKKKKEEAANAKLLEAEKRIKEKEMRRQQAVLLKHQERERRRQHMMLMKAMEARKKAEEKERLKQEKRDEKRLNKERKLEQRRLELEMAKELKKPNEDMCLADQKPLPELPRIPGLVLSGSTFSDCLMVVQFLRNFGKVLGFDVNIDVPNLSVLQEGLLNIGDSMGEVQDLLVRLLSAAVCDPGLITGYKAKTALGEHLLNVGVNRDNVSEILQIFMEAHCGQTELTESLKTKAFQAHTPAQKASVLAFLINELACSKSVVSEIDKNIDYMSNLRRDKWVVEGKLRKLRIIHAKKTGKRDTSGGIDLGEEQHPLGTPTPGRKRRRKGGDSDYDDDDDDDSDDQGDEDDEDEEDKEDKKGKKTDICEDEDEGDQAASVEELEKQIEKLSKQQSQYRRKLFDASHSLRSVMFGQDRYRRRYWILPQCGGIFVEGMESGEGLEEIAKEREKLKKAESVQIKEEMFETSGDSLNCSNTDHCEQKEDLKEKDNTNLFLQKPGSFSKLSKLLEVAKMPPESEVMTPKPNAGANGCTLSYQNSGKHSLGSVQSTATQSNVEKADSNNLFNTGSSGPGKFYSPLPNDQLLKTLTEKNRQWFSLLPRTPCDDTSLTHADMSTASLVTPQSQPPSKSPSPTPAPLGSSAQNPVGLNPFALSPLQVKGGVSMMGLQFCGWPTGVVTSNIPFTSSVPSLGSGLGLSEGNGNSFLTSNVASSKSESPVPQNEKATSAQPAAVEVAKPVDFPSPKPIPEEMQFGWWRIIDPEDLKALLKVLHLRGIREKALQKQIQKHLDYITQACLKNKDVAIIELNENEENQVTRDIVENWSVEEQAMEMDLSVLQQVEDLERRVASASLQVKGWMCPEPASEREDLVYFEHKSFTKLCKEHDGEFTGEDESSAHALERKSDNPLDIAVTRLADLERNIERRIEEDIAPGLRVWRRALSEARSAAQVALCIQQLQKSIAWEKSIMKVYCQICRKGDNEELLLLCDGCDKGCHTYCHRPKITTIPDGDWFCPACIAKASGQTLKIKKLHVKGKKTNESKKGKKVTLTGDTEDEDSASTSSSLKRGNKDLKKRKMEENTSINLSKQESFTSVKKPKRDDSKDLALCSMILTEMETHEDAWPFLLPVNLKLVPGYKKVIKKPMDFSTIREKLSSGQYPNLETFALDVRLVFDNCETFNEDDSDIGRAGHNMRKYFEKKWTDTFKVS
Outline: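 AlphaScreen displacement: compounds (up to 110uM) incubated 30 min at room temperature with a preformed 50 nM BAZ2B/50 nM biotinylated H3K14Ac peptide complex in PBS pH 7.4 with Tween-20. Donor and acceptor beads at 10 ug/mL final added, 20 min light-protected before reading.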
`CCCCNc1cc(Cl)nc(N)n1` was tested, and the “activity change, negative = inhibition” value was inactive: -0.623%. `CC1(C)Oc2ccc3ccc(=O)oc3c2/C(=C/NCCO)C1=O` was tested, and the Potency was inconclusive: 89.1 µM [inhibitor, single point]. With `Cc1cccc(C)c1NC(=S)N/N=C/c1ccccc1C(=O)O` the “activity change, negative = inhibition” value was inactive: -2.04%. For `COc1ccc2nc(-n3c(O)c(C4=c5ccccc5=NC4=O)[nH]c3=S)sc2c1`, the Potency was active: 12.6 µM. In the case of `c1csc(C2=Nn3c(nnc3-c3ccncc3)SC2)c1`, the Potency is reported as inconclusive: 79.4 µM [inhibitor, single point]. In the case of `CCOC(=O)N1CCc2c(sc(NCc3cccc(F)c3)c2C(=O)Nc2ccc(OCC)cc2)C1`, the Potency is reported as inconclusive: 35.5 µM [inhibitor, full curve]. For `COc1cccc(-c2csc(N3CCN(CC(=O)Nc4ccc5c(c4)OCO5)CC3)n2)c1`, the Potency was inconclusive: 35.5 µM [inhibitor, partial curve]. For `CCCCCNC(=O)c1ccc2c(=O)n(CCc3ccccc3)c(=O)[nH]c2c1`, the “activity change, negative = inhibition” value was inactive: 1.71%. In the case of `O=C(Nc1nnc(-c2cccs2)o1)c1cccc(C(F)(F)F)c1`, the “activity change, negative = inhibition” value is reported as inactive: 0.934%. `O=C(CNC(=O)c1ccc(Br)o1)Nc1ncccc1O` was tested, and the Potency was active: 79.4 µM. With `O=C(Nc1ccc(S(=O)(=O)Nc2nccs2)cc1)c1ccc(=O)[nH]c1` the Potency was active: 50.1 µM. With `COc1ccc(CC(=O)N(C)CC(=O)Nc2c(C)cccc2C)cc1S(=O)(=O)N1CCOCC1` the Potency was inconclusive: 70.8 µM [inhibitor, single point]. With `CSc1ccc(Cl)c(C(=O)Nc2nccs2)c1` the Potency was inconclusive: 89.1 µM [inhibitor, single point]. For `O=C(CCCCn1c(=O)[nH]c2ccsc2c1=O)NCc1ccc2c(c1)OCO2`, the “activity change, negative = inhibition” value was inactive: 10.7%. In the case of `Cc1ccc(-c2cc(C(=O)Nc3ccc(S(=O)(=O)Nc4nc(C)cc(C)n4)cc3)c3ccccc3n2)cc1`, the Potency is reported as inconclusive: 56.2 µM [inhibitor, single point]. `N#CC1=C(N)NC(SCC(=O)Nc2ccc(Br)cc2)=C(C#N)C12CCCCC2` was tested, and the Potency was inconclusive: 70.8 µM [inhibitor, single point]. With `O=C(NC(=S)Nc1ccc(N2CCCCC2)cc1)c1cccs1` the Potency was active: 14.1 µM. `CCn1c(/C=C2\C(=O)N(C(C)C)c3ccccc32)nc2ccccc2c1=O` was tested, and the Potency was active: 39.8 µM. `CN(C)c1ccc(CN(C(=O)c2cc3ccccc3oc2=O)C2CCS(=O)(=O)C2)cc1` (configuration not stated) was tested, and the Potency was inconclusive: 89.1 µM [inhibitor, single point]. In the case of `Cc1c(N/C=C(\Cl)C(=O)C(F)(F)F)c(=O)n(-c2ccccc2)n1C`, the Potency is reported as inconclusive: 89.1 µM [inhibitor, single point]. For `CCCNC(=O)c1ccc(C2SCC(=O)N2CCc2ccccc2)cc1` (configuration not stated), the “activity change, negative = inhibition” value was inactive: 2.33%. `O=C(O)c1cc(N2C(=O)C3CC=CCC3C2=O)ccc1NCc1cccnc1` (configuration not stated) was tested, and the Potency was inconclusive: 6.31 µM [inhibitor, single point]. With `CCCCCC(=O)N/N=C/c1ccc(N(C)C)cc1` the Potency was inconclusive: 79.4 µM [inhibitor, single point]. For `O=[N+]([O-])c1ccc2c(c1)[nH]c(=S)n2-c1ccccc1`, the Potency was inconclusive: 79.4 µM [inhibitor, single point]. In the case of `Cc1ccc(S(=O)(=O)NCC(=O)OCC(=O)c2cc(C)n(-c3ccccc3)c2C)cc1`, the Potency is reported as inconclusive: 39.8 µM [inhibitor, full curve, poor fit]. With `CCCOP(=O)(c1ccc(N(C)C)cc1)C(Nc1ccccc1)c1ccc(C)cc1` (configuration not stated) the Potency was inconclusive: 35.5 µM [inhibitor, full curve]. In the case of `O=C1C(NS(=O)(=O)c2ccc(Br)cc2)=C(N2CCCCC2)C(=O)c2ccccc21`, the Potency is reported as active: 5.01 µM. `COC(=O)c1oc2ccc(Br)cc2c1NC(=O)c1ccccc1` was tested, and the Potency was inconclusive: 100 µM [inhibitor, single point]. `COc1ccc(Cn2c(C(=O)O)c(CNCc3ccc(C)o3)c3ccc(OC)cc32)cc1` was tested, and the Potency was inconclusive: 70.8 µM [inhibitor, partial curve]. For `CCc1nc(Nc2ccccc2F)c2oc3ccccc3c2n1`, the Potency was active: 56.2 µM. For `C=CCC(Nc1ccccc1)c1ccc(OC)c(OC)c1` (configuration not stated), the “activity change, negative = inhibition” value was inactive: -13.2%. In the case of `OC(CNCc1ccco1)Cn1c2ccccc2c2ccccc21` (configuration not stated), the Potency is reported as inconclusive: 79.4 µM [inhibitor, single point]. `CCOc1ccc(S(=O)(=O)N2CCN(c3ncccn3)CC2)cc1` was tested, and the Potency was inconclusive: 79.4 µM [inhibitor, single point]. With `COc1ccc(Cl)cc1NC(=O)CN(C)CC(=O)Nc1cc(OC)c(OC)c(OC)c1` the “activity change, negative = inhibition” value was inactive: -14.6%. With `CCOc1ccc(C(=O)NCCc2csc(-c3cccnc3)n2)cc1` the “activity change, negative = inhibition” value was inactive: -19.9%. With `Cc1nc(NS(=O)(=O)c2ccc(Br)cc2)c2c3c(sc2n1)CCC3` the Potency was inconclusive: 89.1 µM [inhibitor, single point]. With `Cc1c(NC(=O)C(=O)/C=C(\O)c2ccc(Br)cc2)c(=O)n(-c2ccccc2)n1C` the Potency was inconclusive: 79.4 µM [inhibitor, single point]. With `Cc1ccc(OCCCCn2nnc3sc4c(c3c2=O)CCC(C)C4)cc1` (configuration not stated) the Potency was inconclusive: 89.1 µM [inhibitor, single point]. `COc1cc([N+](=O)[O-])cc(/C=N/NC(=O)c2cc(-c3ccccc3)nc3ccccc23)c1O` was tested, and the Potency was active: 50.1 µM. `CCOC(=O)c1c(-c2ccccc2)oc2cc(Br)c(OCc3ccccc3)cc12` was tested, and the “activity change, negative = inhibition” value was inactive: -0.0358%. `O=C1N(c2ccccc2)C2CS(=O)(=O)CC2N1c1ccc(Cl)c(Cl)c1` (configuration not stated) was tested, and the Potency was inconclusive: 10 µM [inhibitor, full curve, poor fit]. With `O=C(CSc1nccn1-c1ccc(F)cc1)Nc1cccc2ccccc12` the Potency was active: 7.94 µM. With `CCc1nnc(SCc2nc(-c3cccc(C)c3)oc2C)c2cc3sc(C)cc3n12` the “activity change, negative = inhibition” value was inactive: -3.25%. For `O=C(N/N=C/c1ccc(Br)cc1)c1ccc(Br)o1`, the Potency was inconclusive: 89.1 µM [inhibitor, single point]. `O=C(COc1ccccc1Cl)Nc1nc(-c2ccc(F)cc2)ns1` was tested, and the “activity change, negative = inhibition” value was inactive: -0.17%. In the case of `CCN1CCN(c2cc(C)c3cc(NC(=O)/C=C/c4ccc(OCCC(C)C)cc4)ccc3n2)CC1`, the “activity change, negative = inhibition” value is reported as inactive: -33.6%. In the case of `O=c1/c(=C/c2ccco2)sc2nc(-c3ccccc3Br)nn12`, the Potency is reported as active: 44.7 µM. For `CC(C)Oc1ccc(CNC(=O)c2ccc3c(c2)N(C)C(=O)C2CCCCN32)cc1` (configuration not stated), the Potency was inconclusive: 79.4 µM [inhibitor, partial curve]. For `Cc1nn(-c2nnc(C)c(=O)[nH]2)c(C)c1SCC(=O)Nc1ccc(F)cc1`, the Potency was active: 50.1 µM. With `NC(=O)c1ccc([N+](=O)[O-])cc1SCc1ccccc1` the Potency was inconclusive: 44.7 µM [inhibitor, partial curve]. In the case of `COc1ccc(N2CCN(CC(O)COc3ccc(F)cc3)CC2)cc1` (configuration not stated), the Potency is reported as inconclusive: 79.4 µM [inhibitor, single point]. For `COc1ccc(CNc2ncnc3c2c(-c2ccccc2)cn3-c2cccc(C)c2)cc1`, the Potency was inconclusive: 22.4 µM [inhibitor, single point]. `CCOc1cccc2sc(N(CCN(C)C)C(=O)c3ccc4ccccc4c3)nc12` was tested, and the Potency was inconclusive: 44.7 µM [inhibitor, partial curve]. `Cc1ccc([N+](=O)[O-])cc1-c1[nH]c(-c2ccc(O)c(O)c2)nc1-c1ccccc1` was tested, and the Potency was active: 28.2 µM. With `COc1cc2c3c(c1)C1(C(=O)N3C(C)(C)C=C2C)C(C#N)=C(N)Oc2cc(O)ccc21` (configuration not stated) the Potency was inconclusive: 79.4 µM [inhibitor, single point]. `Cc1ccccc1N1C(=O)c2cccc([N+](=O)[O-])c2C1=O` was tested, and the Potency was inconclusive: 89.1 µM [inhibitor, single point]. With `COC(=O)c1ccc[n+](CC(=O)c2ccc(Br)cc2)c1` the “activity change, negative = inhibition” value was inactive: 1.56%. With `COc1ccc(O)c(/C=N/NC(=S)Nc2cccc(S(=O)(=O)N(C)C)c2)c1` the Potency was active: 7.94 µM. `COc1ccc(CCNC(=O)c2ccc3c(=O)n4c(nc3c2)CCC4)cc1OC` was tested, and the “activity change, negative = inhibition” value was inactive: 1.25%. For `COc1cccc(CNCc2c(C(=O)O)n(Cc3ccc(C)cc3)c3cc(C)ccc23)c1OC`, the Potency was inconclusive: 39.8 µM [inhibitor, partial curve]. With `S=C(c1ccc(-c2cccc(Cl)c2)o1)N1CCOCC1` the Potency was active: 44.7 µM. For `O=C(O)c1ccccc1C(=O)Nc1ccc(-c2csc(-c3ccccc3)n2)cc1`, the Potency was inconclusive: 50.1 µM [inhibitor, partial curve]. For `O=C(Nc1cccnc1)c1ccc(N2CCCC2)c([N+](=O)[O-])c1`, the “activity change, negative = inhibition” value was inactive: -30.4%. `COc1ccc(-c2csc3nc(-c4ccccc4F)oc(=O)c23)cc1` was tested, and the “activity change, negative = inhibition” value was inactive: 6.28%. In the case of `CCN(CC)S(=O)(=O)c1ccc(N/N=C(\C)c2ccc(OC)cc2O)nc1`, the Potency is reported as inconclusive: 50.1 µM [inhibitor, partial curve]. `Cc1cccc(Cc2cnc(N3C(=N)SC(c4ccccc4)C3=O)s2)c1` (configuration not stated) was tested, and the “activity change, negative = inhibition” value was inactive: 0.285%. In the case of `O=C(Nc1nc(-c2ccccn2)cs1)C1CC(=O)N(c2ccc3c(c2)OCCO3)C1` (configuration not stated), the Potency is reported as active: 39.8 µM. For `O=C1Nc2ccccc2/C1=C\c1cccn1-c1ccc(OC(F)(F)F)cc1`, the Potency was inconclusive: 25.1 µM [inhibitor, full curve]. For `CC1CCN(c2ccc(C(=O)OCC(=O)NCCN3C(=O)CSC3=O)cc2[N+](=O)[O-])CC1`, the Potency was inconclusive: 50.1 µM [inhibitor, partial curve]. `CCOc1ccc(N(C(=O)Nc2ccccc2)C2=NCCC2)cc1` was tested, and the Potency was inconclusive: 28.2 µM [inhibitor, single point]. `C=CCNCCOCCOc1ccc(C)cc1[N+](=O)[O-]` was tested, and the Potency was inconclusive: 89.1 µM [inhibitor, single point]. For `CCn1c(CSc2nnc(-c3cccnc3)n2-c2ccccc2C)nc2cc(C(=O)O)ccc21`, the Potency was inconclusive: 89.1 µM [inhibitor, single point].
